Some of the results follow.
B1: Q9UKT9 (peptide)
chain: FWCEVCGAFFTQKGNLLRHIKL
B2: Q9UKT9 (peptide)
chain: FQCNVCGASFTQKGNLLRHIKL
B3: Q9UKT9 (peptide)
chain: FWCDQCGADFTQKGNLLRHIKL
B4: Q9UKT9 (peptide)
chain: FECEQCGAMFTQKGNLLRHIKL
B5: Q9UKT9 (peptide)
chain: FICPQCGAMFTQKGNLLRHIKL
B6: Q9UKT9 (peptide)
chain: FSCNQCGAMFTQKGNLLRHIKL
B7: Q9UKT9 (peptide)
chain: FICDQCGAPFTQKGNLLRHIKL
B8: Q9UKT9 (peptide)
chain: FGCNICGASFTQKGNLLRHIKL
B9: Q9UKT9 (peptide)
chain: FRCPVCGAHFTQKGNLLRHIKL
B10: Q9UKT9 (peptide)
chain: FHCNICGAVFTQKGNLLRHIKL
B11: Q9UKT9 (peptide)
chain: FNCPICGAQFTQKGNLLRHIKL
B12: Q9UKT9 (peptide)
chain: FSCDVCGAEFTQKGNLLRHIKL
B13: Q9UKT9 (peptide)
chain: FRCPICGRTFTQKGNLLRHIKL
B14: Q9UKT9 (peptide)
chain: FDCPICGRFFTQKGNLLRHIKL
B15: Q9UKT9 (peptide)
chain: LLCEICGFYCTQKGNLLRHIKL
B16: Q9UKT9 (peptide)
chain: LVCPICGFTCTQKGNLLRHIKL
B17: Q9UKT9 (peptide)
chain: FNCEICGAPFTQKGNLLRHIKL
B18: Q9UKT9 (peptide)
chain: FTCEICGACFTQKGNLLRHIKL
B19: Q9UKT9 (peptide)
chain: FGCPICGHDFTQKGNLLRHIKL
B20: Q9UKT9 (peptide)
chain: FQCPICGRTFTQKGNLLRHIKL
B21: Q9UKT9 (peptide)
chain: FQCPQCGAGFTQKGNLLRHIKL
B22: Q9UKT9 (peptide)
chain: FVCNVCGARFTQKGNLLRHIKL
B23: Q9UKT9 (peptide)
chain: FNCNQCGAKFTQKGNLLRHIKL
B24: Q9UKT9 (peptide)
chain: LNCPICGFLCTQKGNLLRHIKL
B25: Q9UKT9 (peptide)
chain: LQCNQCGFTCTQKGNLLRHIKL
B26: Q9UKT9 (peptide)
chain: FRCEICGRLFTQKGNLLRHIKL
B27: Q9UKT9 (peptide)
chain: FICPICGAKFTQKGNLLRHIKL
B28: Q9UKT9 (peptide)
chain: FMCEICGHNFTQKGNLLRHIKL
B29: Q9UKT9 (peptide)
chain: FYCEICGAAFTQKGNLLRHIKL
B30: Q9UKT9 (peptide)
chain: FTCNQCGRRFTQKGNLLRHIKL
B31: Q9UKT9 (peptide)
chain: FCCNQCGHPFTQKGNLLRHIKL
B32: Q9UKT9 (peptide)
chain: FGCDICGAIFTQKGNLLRHIKL
B33: Q9UKT9 (peptide)
chain: LFCEICGFKCTQKGNLLRHIKL
B34: Q9UKT9 (peptide)
chain: FICNICGAVFTQKGNLLRHIKL
B35: Q9UKT9 (peptide)
chain: FACPICGARFTQKGNLLRHIKL
B36: Q9UKT9 (peptide)
chain: FNCNVCGAEFTQKGNLLRHIKL
B37: Q9UKT9 (peptide)
chain: FICEICGHRFTQKGNLLRHIKL
B38: Q9UKT9 (peptide)
chain: FMCNQCGACFTQKGNLLRHIKL
B39: Q9UKT9 (peptide)
chain: FYCDQCGAPFTQKGNLLRHIKL
B40: Q9UKT9 (peptide)
chain: FLCEVCGAHFTQKGNLLRHIKL
B41: Q9UKT9 (peptide)
chain: FFCNVCGAEFTQKGNLLRHIKL
B42: Q9UKT9 (peptide)
chain: FECNICGADFTQKGNLLRHIKL
B43: Q9UKT9 (peptide)
chain: FRCNQCGHIFTQKGNLLRHIKL
B44: Q9UKT9 (peptide)
chain: FQCNVCGALFTQKGNLLRHIKL
B45: Q9UKT9 (peptide)
chain: LLCEICGFFCTQKGNLLRHIKL
B46: Q9UKT9 (peptide)
chain: FHCEQCGAIFTQKGNLLRHIKL
B47: Q9UKT9 (peptide)
chain: FLCNQCGHCFTQKGNLLRHIKL
B48: Q9UKT9 (peptide)
chain: LLCNQCGFDCTQKGNLLRHIKL
B49: Q9UKT9 (peptide)
chain: FYCPICGRRFTQKGNLLRHIKL
B50: Q9UKT9 (peptide)
chain: FKCNQCGHEFTQKGNLLRHIKL

Biological target: no compound (DMSO)
Assay: log2 fold change of degron read counts, EGFP-low vs EGFP+ sorted cells; higher = lower degron-EGFP level without compound (poor expression or instability)
Details: compound: DMSO control; 18 h
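Further: jurkat cells carrying a lentiviral library of mutant zinc finger degrons fused to EGFP plus mCherry, mCherry+ cells FACS sorted, degron abundance counted by next-generation sequencing.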

Sequence | log2 fold change of degron read counts
B1 | 0.957
B2 | -0.664
B3 | -0.786
B4 | -2.62
B5 | 0.125
B6 | -0.913
B7 | -1.39
B8 | -0.672
B9 | -0.667
B10 | 0.0838
B11 | -0.524
B12 | -1.51
B13 | -0.537
B14 | 0.611
B15 | 1.18
B16 | 0.0502
B17 | -0.286
B18 | -1.04
B19 | -0.255
B20 | -0.454
B21 | -0.427
B22 | -1.03
B23 | -0.405
B24 | 1.17
B25 | 0.353

Sequence | log2 fold change of degron read counts
B26 | -0.531
B27 | -0.159
B28 | -1.25
B29 | -1.12
B30 | 0.435
B31 | 0.0519
B32 | -0.742
B33 | 0.07
B34 | 0.164
B35 | -0.509
B36 | -1.99
B37 | -0.815
B38 | -0.579
B39 | -0.833
B40 | -1.73
B41 | -0.934
B42 | -1.03
B43 | -0.0307
B44 | 0.212
B45 | 1.87
B46 | -0.592
B47 | -0.279
B48 | 0.333
B49 | -3.78
B50 | -1.39

From the supplement of paper PMC12645437, “Orthogonal IMiD-Degron Pairs Induce Selective Protein Degradation in Cells” (ACS Chemical Biology, 2025)
